Several values for one entry are separate records, joined by “and”; a condition that tells them apart may be missing. Equal entries are not always repeated. Out of some 390,000 compounds screened, about 4,700 (1.2%) were called active. The inconclusive results got no clear call from the source; some entries with a clear call stand among them for comparison. Calls come from the whole dose curve; as a rule, active = well fitted inhibition curve with a large enough effect; inconclusive = small, poorly fitted or top-dose-only effect, or another doubt; inactive = no such curve, though single readings can be large or run the other way. A potency beside an inconclusive call is a rough fit, not a confirmed value.
target: DNA polymerase eta (Homo sapiens) (UniProt Q9Y253); assay: qHTS for Inhibitors of Polymerase Eta; conditions: recombinant Pol eta, fluorescent DNA replication assay; series mostly up to 114 µM
Procedure, shortened: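 Pol eta at 10 nM preincubated with compounds 15 min at room temperature; reaction started with fluorescent substrate (50 nM final) and read kinetically at 0 and 10 min.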
Potency is the fitted concentration of half-maximal effect; tags give direction and shape of the fitted curve.

Chain of UniProt Q9Y253 (Q9Y253 whole entry, looked up): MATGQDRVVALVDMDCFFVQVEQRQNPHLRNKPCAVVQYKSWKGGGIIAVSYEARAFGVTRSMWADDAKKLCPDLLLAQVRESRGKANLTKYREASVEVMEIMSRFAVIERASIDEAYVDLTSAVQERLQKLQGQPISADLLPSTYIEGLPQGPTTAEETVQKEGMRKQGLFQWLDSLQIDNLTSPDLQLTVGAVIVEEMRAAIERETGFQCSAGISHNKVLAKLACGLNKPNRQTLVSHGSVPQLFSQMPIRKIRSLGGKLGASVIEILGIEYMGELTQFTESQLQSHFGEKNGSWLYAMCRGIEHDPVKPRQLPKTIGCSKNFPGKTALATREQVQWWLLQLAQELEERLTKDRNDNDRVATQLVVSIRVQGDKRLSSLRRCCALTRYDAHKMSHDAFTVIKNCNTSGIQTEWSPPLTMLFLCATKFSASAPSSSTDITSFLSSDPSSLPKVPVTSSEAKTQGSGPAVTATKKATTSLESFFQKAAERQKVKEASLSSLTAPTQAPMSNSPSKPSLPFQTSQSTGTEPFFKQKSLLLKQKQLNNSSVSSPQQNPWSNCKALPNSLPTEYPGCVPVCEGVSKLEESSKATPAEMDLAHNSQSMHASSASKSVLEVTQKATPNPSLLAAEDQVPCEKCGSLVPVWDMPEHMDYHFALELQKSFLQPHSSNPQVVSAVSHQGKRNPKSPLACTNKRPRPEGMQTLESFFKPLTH

SMILES	Potency
CCSc1oc(-c2ccco2)nc1S(=O)(=O)c1ccc(Br)cc1	inconclusive: 100 µM [inhibitor, partial curve, poor fit]
COCCCNC(=O)c1ccc2c(=O)n(CC3CCCO3)c(=S)[nH]c2c1 (centres undefined)	inactive
COc1ccc2nc(Nc3nc4cc5c(cc4s3)OCCO5)sc2c1	inconclusive: 11.2 µM [inhibitor, partial curve, poor fit]
Cc1ccc(CCNC(=O)c2c[nH]c3ccc(S(=O)(=O)Nc4ccc(C)cc4C)cc3c2=O)cc1	active: 50.1 µM
O=C(NCCNCc1cccc(Cl)c1)c1ccco1	inconclusive: 31.6 µM [inhibitor, partial curve, poor fit]
CCOc1ccc(NC(=O)CN2CCN(CC(=O)c3ccc(OCC)cc3)CC2)cc1	inconclusive: 79.4 µM [inhibitor, partial curve, poor fit]
COc1cc(/C=N/N=C2/NC(=O)C(Cc3ccc(F)cc3)S2)ccc1O (centres undefined)	inconclusive: 100 µM [inhibitor, partial curve, poor fit]
CCOC(=O)c1ccc(NC(=O)CCn2c(=O)c3cccn3c3cccnc32)cc1	inconclusive: 89.1 µM [inhibitor, partial curve, poor fit]
CC(OC(=O)c1ccccc1C(=O)N(C)c1ccccc1)C(=O)Nc1ccccc1[N+](=O)[O-] (centres undefined)	inconclusive: 22.4 µM [inhibitor, partial curve, poor fit]
OC(Cn1cncn1)(c1ccc(F)cc1)c1ccc(Cl)cc1 (centres undefined)	inconclusive: 25.1 µM [inhibitor, full curve, poor fit]
CCc1ccccc1OCCOc1ccc(C)cc1OC	inconclusive: 79.4 µM [inhibitor, partial curve, poor fit]
Cc1cccc(N/N=C/c2ccc(O)c(O)c2O)c1	inconclusive: 11.2 µM [inhibitor, partial curve, poor fit]
Cn1c(=O)c2c(nc(Br)n2Cc2nnc(N)s2)n(C)c1=O	inconclusive: 100 µM [inhibitor, partial curve, poor fit]
C=CCn1c(SCC(=O)c2ccc(O)c(O)c2)nnc1-c1cccc(Cl)c1	active: 15.8 µM
Cc1cc(C)c(C)c(S(=O)(=O)N2CCC(C(=O)N(C)Cc3nc4ccccc4c(=O)[nH]3)CC2)c1C	inactive
O=[N+]([O-])c1cc(Br)cc(C=Nc2ccc3c(c2)OCO3)c1O	active: 79.4 µM
COc1ccc(-c2cc(=O)oc3cc(OC(C)C(=O)NC(Cc4c[nH]c5ccc(O)cc45)C(=O)O)ccc23)cc1 (centres undefined)	inactive
COc1ccc(CCNC(=O)c2nnn(CC(=O)Nc3cccc(F)c3)c2N)cc1OC	inconclusive: 31.6 µM [inhibitor, single point]
Cc1ccc(C)c(NC(=O)Cn2c(=O)nc(-c3ccccc3)c3ccccc32)c1	inconclusive: 89.1 µM [inhibitor, single point]
Cc1c(Cl)cccc1NC(=O)Cn1nnc(C(=O)NCc2cccs2)c1N	active: 79.4 µM
CC(=O)c1sc(C(=O)O)c(-c2ccco2)c1-c1ccco1	active: 22.4 µM
O=c1[nH]c2cc3c(cc2cc1CN(Cc1ccccc1)Cc1nnnn1Cc1ccco1)OCCO3	inconclusive: 39.8 µM [inhibitor, single point]

SMILES	Potency
COc1cc(/C=N/Nc2ccccc2)ccc1OC(=O)c1cccs1	inactive
O=C(O)c1c(-c2ccccc2)oc2ccc(OCc3ccc(Cl)c(Cl)c3)cc12	inconclusive: 89.1 µM [inhibitor, single point]
CN(C)c1nc(C=C(C#N)C#N)c(Cl)n1-c1ccc(F)cc1	inconclusive: 63.1 µM [inhibitor, partial curve, poor fit]
CC(=O)C1CCC2C3CC(C)=C4CC(O)CCC4(C)C3CCC12C (centres undefined)	inactive
Cn1cc(CCC(=O)NCc2ccc(Cl)cc2)c2ccccc21	inconclusive: 89.1 µM [inhibitor, partial curve, poor fit]
CCn1c(SCC(=O)N/N=C/C(C)=C/c2ccco2)nnc1-c1ccccc1	active: 89.1 µM
CCC(=O)N(c1nnc(SCC(=O)c2ccc[nH]2)s1)C1CC1	inconclusive: 14.1 µM [inhibitor, partial curve, poor fit]
CN(C)/C=C/C(=O)c1ccc2noc(-c3ccccc3)c2c1	inconclusive: 89.1 µM [inhibitor, single point]
CC(OCC(O)CNCC1COc2ccccc2O1)c1ccc(Cl)cc1 (centres undefined)	inconclusive: 79.4 µM [inhibitor, partial curve, poor fit]
Cc1cccc(C)c1NC(=O)/C(C#N)=C/c1ccc(-c2ccc(C(=O)O)cc2)o1	active: 50.1 µM
COC(=O)c1ccc2c(c1)N(Cc1cc(C)ccc1C)C(=O)c1ccccc1S2	inconclusive: 44.7 µM [inhibitor, partial curve, poor fit]
Cc1cc(N)c2cc(NC(=O)/C=C/c3ccccc3Cl)ccc2n1	inconclusive: 79.4 µM [inhibitor, partial curve, poor fit]
CCCCNC(=O)C1CCN(Cc2ccccn2)CC1	inconclusive: 3.98 µM [inhibitor, partial curve, poor fit]
Cc1ccc(C(=O)NCC(=O)N2CCN(c3ncccn3)CC2)s1	inconclusive: 35.5 µM [inhibitor, partial curve, poor fit]
O=C1ON=C(c2ccccc2)/C1=C/c1ccccc1	inactive
N=C1/C(=C\c2ccc(OC(=O)c3ccc(F)cc3)cc2)C(=O)N=C2SC(N3CCCC3)=NN12	active: 56.2 µM
CC1C(=O)Nc2ccc(S(=O)(=O)NCc3ccc(N(C)C)cc3)cc2NC1=O (centres undefined)	inconclusive: 89.1 µM [inhibitor, single point]
COc1ccc(OCCn2c(C(C)Oc3ccccc3)nc3ccccc32)cc1 (centres undefined)	inconclusive: 79.4 µM [inhibitor, partial curve, poor fit]
CC(=O)NS(=O)(=O)c1ccc(NC(=O)/C=C/c2ccc(C)o2)cc1	active: 22.4 µM
COc1cc(NC(=S)NCCc2c[nH]c3ccccc23)c(OC)cc1Cl	inconclusive: 70.8 µM [inhibitor, partial curve, poor fit]
O=C(CSc1nc2nc(-c3cccs3)cc(C(F)(F)F)c2c(=O)[nH]1)Nc1ccc(F)c(F)c1	active: 31.6 µM
O=C1C(Cl)=C(NCCc2ccccc2)C(=O)c2ccccc21	active: 22.4 µM

SMILES	Potency
O=C(CSc1nc2ccccc2o1)N/N=C/c1ccccc1C(=O)O	inconclusive: 89.1 µM [inhibitor, partial curve, poor fit]
COc1ccc(/C=C(\C#N)c2nc3ccccc3[nH]2)cc1O	active: 79.4 µM
Cc1oc(C(=O)O)cc1CSCc1ccoc1C(=O)O	active: 3.16 µM
CCOc1cc(/C=C2/NC(=O)NC2=O)cc(Br)c1OCc1ccc(C(=O)O)cc1	inconclusive: 28.2 µM [inhibitor, full curve]
CCOC(=O)c1c(NC(=O)CSc2nnc(-c3cccc(C)c3)n2CC)sc(C(C)=O)c1C	inconclusive: 28.2 µM [inhibitor, single point]
COc1ccc(C)cc1NC(=O)C1CCN(S(=O)(=O)c2ccc3c(c2)CCCN3C(C)=O)CC1	inactive
Cc1ccc(C)n1-c1ccccc1N1CCCCC1	inactive
Nc1nc(SCC(=O)Nc2ncc(Cl)cc2Cl)n[nH]1	inconclusive: 11.2 µM [inhibitor, full curve, poor fit]
COC(=O)c1cc(OC)c(OC)cc1NCC(=O)Nc1ccc(OC)c(OC)c1	inconclusive: 17.8 µM [inhibitor, partial curve, poor fit]
Cc1cccc(-c2nnn3c2nc(NCCc2ccc(S(N)(=O)=O)cc2)c2ccccc23)c1	inconclusive: 8.91 µM [inhibitor, full curve] and inconclusive: 79.4 µM [inhibitor, partial curve]
N=c1c(C(=O)NCc2ccco2)cc2c(=O)n3ccccc3nc2n1CCc1ccccc1	inconclusive: 11.2 µM [inhibitor, partial curve, poor fit]
O=C(NP(=O)(N1CCCC1)N1CCCC1)C1=C(N2CCOCC2)/C(=C/c2cccc([N+](=O)[O-])c2)CC1	inconclusive: 50.1 µM [inhibitor, partial curve]
CCc1ccc(NC(=O)c2ccc(F)c(S(=O)(=O)N(C)C3CCCCC3)c2)cc1	inactive
COc1cc(NC(=O)c2cccs2)c(OC)cc1NC(=O)CCC(=O)Nc1ccc2ncccc2c1	inconclusive: 44.7 µM [inhibitor, partial curve]
CC(/C=N/NC(=O)c1cc(-c2ccc3ccccc3c2)n[nH]1)=C\c1ccco1	inconclusive: 39.8 µM [inhibitor, partial curve]
COc1ccc(N2CC(C(=O)Nc3nnc(SCC(=O)NCc4ccco4)s3)CC2=O)cc1 (centres undefined)	active: 22.4 µM
O=C(COC(=O)c1ccc(O)cc1)Nc1ncc(Cl)cc1Cl	inconclusive: 79.4 µM [inhibitor, partial curve]
FC(F)(F)c1cccc(CNC2c3ccccc3-c3ccccc32)c1	inconclusive: 79.4 µM [inhibitor, partial curve, poor fit]
Nc1ccc(-c2nc3c(ccc4ccccc43)[nH]2)cc1	inconclusive: 56.2 µM [inhibitor, partial curve, poor fit]
COc1cc(NS(=O)(=O)c2ccc(NC(=O)/C=C/c3cccc([N+](=O)[O-])c3)cc2)ncn1	inconclusive: 56.2 µM [inhibitor, partial curve, poor fit]

— PubChem BioAssay AID588591 (National Center for Advancing Translational Sciences (NCATS), 2011)
